Inconclusive means that the source gave no clear call. Such entries were picked first, then a sample of the others. No potency is given beside an inconclusive call; the fits are too rough. Calls of active or inactive are those of the source. Calls follow the shape of the dose curve; as a rule, active = well fitted curve in the direction sought with a large enough effect in the repeat runs; inconclusive = weak or mixed curves; inactive = no such curve, though single readings can be large; an effect the other way counts as inactive or inconclusive.
Test: qHTS RealTime-Glo MT Cell Viability Assay in HEK293 cells - 8 hour (AID 1224887); also: nearly all actives have a fitted effect of over 50% in size
Details: RealTime-Glo luminescence; series mostly up to 76.8 µM
Procedure, shortened: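 qHTS format; HEK293 cells with NanoLuc/prosubstrate reagent, 37 C/5% CO2 for 5 h pre-dosing; compounds 23 nL in DMSO; luminescence at each time point reflects viable cells.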
Potency is read from the fitted curve at half-maximal effect; tags tell the direction and shape of the fitted curve.

SMILES	Potency
COC(=O)C1=C(C)NC(C)=C(C(=O)OCCN2CCN(C(c3ccccc3)c3ccccc3)CC2)C1c1cccc([N+](=O)[O-])c1 (stereo not drawn)	inconclusive [cytotoxic, partial curve, poor fit]
O=C1[C@H]2CCCC[C@H]2C(=O)N1CCCCN1CCN(c2nsc3ccccc23)CC1	inconclusive [cytotoxic, partial curve]
O=C1c2c(O)ccc(Nc3ccc(CCO)cc3)c2C(=O)c2c([N+](=O)[O-])ccc(O)c21	active: 43.6 µM
CCOC(=O)C1=C(C)NC(C)=C(C(=O)OC)C1c1cccc([N+](=O)[O-])c1 (stereo not drawn)	inconclusive [cytotoxic, single point]
CCCCC(=O)O[C@]1(C(=O)CO)[C@@H](C)C[C@H]2[C@@H]3CCC4=CC(=O)C=C[C@]4(C)[C@@]3(F)[C@@H](O)C[C@@]21C	inconclusive [cytotoxic, partial curve, poor fit]
COc1cc2c(cc1OC)C(C(C(=O)N(CCc1ccc(OC)c(OC)c1OC)CCc1ccc(OC)c(OC)c1OC)c1ccccc1)=NCC2 (stereo not drawn)	active: 3.01 µM
CCCCCCC[N+](CC)(CC)CCCCc1ccc(Cl)cc1	inconclusive [cytotoxic, full curve]
CC[C@@H]([C@H](C)O)n1ncn(-c2ccc(N3CCN(c4ccc(OC[C@@H]5CO[C@@](Cn6cncn6)(c6ccc(F)cc6F)C5)cc4)CC3)cc2)c1=O	active: 6.01 µM
COc1cc(S(=O)(=O)O)c(C)cc1N=Nc1c(O)ccc2cc(S(=O)(=O)O)ccc12	inactive
CC(C)(C)c1csc(-c2cc3cc(OCc4ccccc4CC(=O)O)ccc3o2)n1	inconclusive [cytotoxic, partial curve]
CCCCCCCCCCCCCCN(C)C	inconclusive [cytotoxic, single point]
O=C(CCCN1CCN(c2ccc(F)cc2)CC1)NC1c2ccccc2CSc2ccccc21 (stereo not drawn)	active: 19 µM

Test: A CellTox Green Cytotoxicity Assay to monitor cytotoxicity in HEK293 cells - 16 hour (AID 1224888); also: nearly all actives have a fitted effect of over 35% in size
Details: CellTox Green fluorescence; series mostly up to 76.8 µM
Procedure, shortened: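 Each value comes from one timepoint of a single continuous run in which HEK293 cells with CellTox Green were exposed to compound for up to 40 h at 37 C, dye fluorescence rising with cell death.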

SMILES	Potency
CCCc1c2oc(C(=O)O)cc(=O)c2cc2c(=O)cc(C(=O)O)n(CC)c12	inconclusive [activator, single point]
CC(C)(C)c1csc(-c2cc3cc(OCc4ccccc4CC(=O)O)ccc3o2)n1	inconclusive [activator, single point]
CCCCCCCCCCCCCCC[C@H](O)[C@@H](N)CO	active: 21.3 µM
C1COCCN1	inconclusive [activator, single point]

Test: qHTS RealTime-Glo MT Cell Viability Assay in HepG2 cells - 0 hour (AID 1224889); also: nearly all actives have a fitted effect of over 50% in size
Details: RealTime-Glo luminescence; series mostly up to 76.8 µM
Procedure, shortened: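 Cells + NanoLuc/prosubstrate dispensed (600 cells/well) → 5 h at 37 C/5% CO2 → compounds in DMSO transferred → 40 h incubation at 37 C, luminescence read at 0, 8, 16, 24, 32, 40 h.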

SMILES	Potency
O=C1c2c(O)ccc(Nc3ccc(CCO)cc3)c2C(=O)c2c([N+](=O)[O-])ccc(O)c21	inconclusive [cytotoxic, partial curve, poor fit]
CCOC(=O)C1=C(C)NC(C)=C(C(=O)OC)C1c1cccc([N+](=O)[O-])c1 (stereo not drawn)	active: 7.56 µM
CCOC(=O)O[C@]1(C(=O)OCCl)CC[C@H]2[C@@H]3CCC4=CC(=O)C=C[C@]4(C)[C@H]3[C@@H](O)C[C@@]21C	active: 3.38 µM
CCCCC(=O)O[C@]1(C(=O)CO)[C@@H](C)C[C@H]2[C@@H]3CCC4=CC(=O)C=C[C@]4(C)[C@@]3(F)[C@@H](O)C[C@@]21C	active: 21.9 µM
Fc1ccc([C@@H]2CCNC[C@H]2COc2ccc3c(c2)OCO3)cc1	inconclusive [rising, partial curve, poor fit]
Cc1ccc(S(=O)(=O)C(I)I)cc1	active: 12.3 µM
COc1cc(S(=O)(=O)O)c(C)cc1N=Nc1c(O)ccc2cc(S(=O)(=O)O)ccc12	inconclusive [cytotoxic, partial curve, poor fit]
CCCCCCCCC1CO1 (stereo not drawn)	inactive

Test: A CellTox Green Cytotoxicity Assay to monitor cytotoxicity in HepG2 cells - 8 hour (AID 1224890); also: nearly all actives have a fitted effect of over 45% in size
Details: CellTox Green fluorescence; series mostly up to 76.8 µM
Procedure, shortened: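 Continuous culture of HepG2 cells with a membrane-impermeant DNA dye; rising fluorescence marks dead cells. Compound exposure lasted up to 40 h at 37 C, with reads every 8 h from 0 h.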

SMILES	Potency
Cc1ccc(S(=O)(=O)C(I)I)cc1	inconclusive [activator, single point]
COc1cc(S(=O)(=O)O)c(C)cc1N=Nc1c(O)ccc2cc(S(=O)(=O)O)ccc12	inactive
CC(C)(C)c1csc(-c2cc3cc(OCc4ccccc4CC(=O)O)ccc3o2)n1	inconclusive [activator, single point]

Test: qHTS assay to identify small molecule antagonists of the estrogen receptor alpha (ER-alpha) signaling pathway using the BG1 cell line in the presence of 0.1 nM 17-beta-estradiol - cell viability counter screen (AID 1259241); also: nearly all actives have a fitted effect of over 40% in size
Details: VM7Luc4E2 (BG1) viability, CellTiter-Fluor protease, 22 h, 0.1 nM estradiol agonist added; series mostly up to 92.4 µM
Procedure, shortened: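 Estradiol-stimulated (0.1 nM) VM7Luc4E2 cells exposed to compounds 22 hr; viability measured by fluorescence of cleaved CellTiter-Fluor substrate after 30 min.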

SMILES	Potency
O=C1c2c(O)ccc(Nc3ccc(CCO)cc3)c2C(=O)c2c([N+](=O)[O-])ccc(O)c21	inconclusive [cytotoxic, partial curve]
COc1cc(S(=O)(=O)O)c(C)cc1N=Nc1c(O)ccc2cc(S(=O)(=O)O)ccc12	active: 21.7 µM
COc1ccccc1N=Nc1c(S(=O)(=O)O)cc2cc(S(=O)(=O)O)cc(NC(C)=O)c2c1O	active: 22.9 µM

Test: qHTS assay to identify small molecule antagonists of the androgen receptor (AR) signaling pathway using the MDA cell line in the presence of 0.5 nM R1881 - cell viability counter screen (AID 1259242); also: nearly all actives have a fitted effect of over 45% in size
Details: MDA-kb2 viability, CellTiter-Fluor protease fluorescence, 16 h; series mostly up to 92.4 µM
Procedure, shortened: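 Fluorescence from CellTiter-Fluor, which reports protease activity of live cells, was read 30 min after reagent addition to MDA-kb2 cells that had been incubated 16 hr with compound and 0.5 nM R1881.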

SMILES	Potency
O=C1[C@H]2CCCC[C@H]2C(=O)N1CCCCN1CCN(c2nsc3ccccc23)CC1	inconclusive [cytotoxic, partial curve, poor fit]
O=C1c2c(O)ccc(Nc3ccc(CCO)cc3)c2C(=O)c2c([N+](=O)[O-])ccc(O)c21	inconclusive [cytotoxic, partial curve, poor fit]
CCCCCCC[N+](CC)(CC)CCCCc1ccc(Cl)cc1	active: 6.68 µM
Cc1ccc(S(=O)(=O)C(I)I)cc1	active: 48.6 µM
COc1ccccc1N=Nc1c(S(=O)(=O)O)cc2cc(S(=O)(=O)O)cc(NC(C)=O)c2c1O	active: 25.7 µM
O=C(O)c1cc(Cl)cc(Cl)c1O	inactive
Cc1ccc(C(C)OC(=O)C2(C)CCC(C(=O)O)C2(C)C)cc1 (stereo not drawn)	inactive
O=C(CCCN1CCN(c2ccc(F)cc2)CC1)NC1c2ccccc2CSc2ccccc21 (stereo not drawn)	inconclusive [cytotoxic, partial curve, poor fit]

Reference: PubChem BioAssay (Tox21)
